This note sets out measurements from article PMC4120242 (Journal of immunology (Baltimore, Md. : 1950), 2014).

The data set “SEC” deals with the molecule itself. Briefly: SEC. Background: In gel filtration, larger molecules generally elute earlier.
The target in another data set is T1, FcγRIIa on K562 cells (human (endogenous in K562), UniProt P12318 34-317).
T1 sequence (looked up): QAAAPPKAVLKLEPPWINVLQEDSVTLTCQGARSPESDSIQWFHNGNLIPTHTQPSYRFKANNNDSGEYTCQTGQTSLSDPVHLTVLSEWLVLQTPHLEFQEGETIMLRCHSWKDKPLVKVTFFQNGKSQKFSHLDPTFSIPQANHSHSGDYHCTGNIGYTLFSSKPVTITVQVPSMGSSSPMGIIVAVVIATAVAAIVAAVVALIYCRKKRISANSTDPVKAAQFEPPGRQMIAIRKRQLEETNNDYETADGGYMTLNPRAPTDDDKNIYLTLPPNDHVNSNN
Briefly: flow cytometry on cells. (In flow cytometry, cells or beads pass a laser one at a time.)

For data set [1], the target named is FcγRI expressed on HEK293 cells (UniProt P12314). Briefly: flow cytometry on cells.
UniProt P12314, sequence (P12314 16-374): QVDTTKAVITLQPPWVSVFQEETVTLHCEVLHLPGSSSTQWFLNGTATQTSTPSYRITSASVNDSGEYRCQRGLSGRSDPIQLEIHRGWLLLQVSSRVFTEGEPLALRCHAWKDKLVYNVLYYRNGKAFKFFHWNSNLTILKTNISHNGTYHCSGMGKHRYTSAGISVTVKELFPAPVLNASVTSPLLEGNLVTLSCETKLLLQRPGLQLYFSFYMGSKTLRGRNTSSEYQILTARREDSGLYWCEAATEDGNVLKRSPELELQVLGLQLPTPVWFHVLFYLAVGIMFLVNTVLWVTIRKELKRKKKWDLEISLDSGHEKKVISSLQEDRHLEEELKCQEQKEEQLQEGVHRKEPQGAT

B1: SAP variant K87A (natural protein)
chain: not shown
What is called stoichiometry N is the number of molecules, sites or subunits per partner or assembly. As for B1, the “stoichiometry N” value in “SEC” amounted to 5.

B2: Serum Amyloid P component (SAP), wildtype (natural protein)
chain: not shown
modifications: Alexa Fluor 647 (Alexa Fluor 647-NHS labelling) in the flow cytometry binding assays
What is called Kd is the free concentration of one partner at which half of the binding sites on the other are occupied at equilibrium, for simple one-to-one binding. Low values mean higher affinity, high ones lower affinity. As for B2, the dissociation constant (Kd) worked out at 19.7 nM with FcγRIIa on K562 cells and 4.6 nM in data set [1].
